# Assay results taken from article PMC8473724.
# The chains behind the UniProt entries cited, without tags or fusion partners. Where a name states a change or a piece, a line headed by the entry shows the natural chain unless it says otherwise. A line that says so, or that is headed by a name, gives the form on record, which may keep a tag or linker. Residues count along the entry.
# Myc-tagged CD22 WT (P20273, residues 20-847): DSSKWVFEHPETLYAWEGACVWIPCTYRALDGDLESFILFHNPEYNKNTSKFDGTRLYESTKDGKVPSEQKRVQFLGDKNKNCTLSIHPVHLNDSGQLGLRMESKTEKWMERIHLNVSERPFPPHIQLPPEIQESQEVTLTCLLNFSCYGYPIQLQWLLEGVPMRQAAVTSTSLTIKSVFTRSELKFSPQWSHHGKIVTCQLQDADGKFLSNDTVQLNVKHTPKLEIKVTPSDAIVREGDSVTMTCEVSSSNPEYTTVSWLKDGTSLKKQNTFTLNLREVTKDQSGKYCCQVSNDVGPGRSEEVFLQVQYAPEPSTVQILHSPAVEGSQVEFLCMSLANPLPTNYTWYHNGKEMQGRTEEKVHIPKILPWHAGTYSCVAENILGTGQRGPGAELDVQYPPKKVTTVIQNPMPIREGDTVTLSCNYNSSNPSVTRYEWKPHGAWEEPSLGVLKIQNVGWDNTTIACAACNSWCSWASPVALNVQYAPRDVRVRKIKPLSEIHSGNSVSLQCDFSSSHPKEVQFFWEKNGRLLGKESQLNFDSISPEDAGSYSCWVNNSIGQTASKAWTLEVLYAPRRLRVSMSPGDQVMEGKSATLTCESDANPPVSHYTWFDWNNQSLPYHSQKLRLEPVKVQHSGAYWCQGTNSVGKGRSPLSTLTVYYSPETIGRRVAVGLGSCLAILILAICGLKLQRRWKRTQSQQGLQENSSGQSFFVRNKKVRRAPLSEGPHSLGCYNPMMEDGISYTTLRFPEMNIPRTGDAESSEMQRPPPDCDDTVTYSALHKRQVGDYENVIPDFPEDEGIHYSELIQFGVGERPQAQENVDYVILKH
# Myc-tagged CD22 Y842F (P20273, form named): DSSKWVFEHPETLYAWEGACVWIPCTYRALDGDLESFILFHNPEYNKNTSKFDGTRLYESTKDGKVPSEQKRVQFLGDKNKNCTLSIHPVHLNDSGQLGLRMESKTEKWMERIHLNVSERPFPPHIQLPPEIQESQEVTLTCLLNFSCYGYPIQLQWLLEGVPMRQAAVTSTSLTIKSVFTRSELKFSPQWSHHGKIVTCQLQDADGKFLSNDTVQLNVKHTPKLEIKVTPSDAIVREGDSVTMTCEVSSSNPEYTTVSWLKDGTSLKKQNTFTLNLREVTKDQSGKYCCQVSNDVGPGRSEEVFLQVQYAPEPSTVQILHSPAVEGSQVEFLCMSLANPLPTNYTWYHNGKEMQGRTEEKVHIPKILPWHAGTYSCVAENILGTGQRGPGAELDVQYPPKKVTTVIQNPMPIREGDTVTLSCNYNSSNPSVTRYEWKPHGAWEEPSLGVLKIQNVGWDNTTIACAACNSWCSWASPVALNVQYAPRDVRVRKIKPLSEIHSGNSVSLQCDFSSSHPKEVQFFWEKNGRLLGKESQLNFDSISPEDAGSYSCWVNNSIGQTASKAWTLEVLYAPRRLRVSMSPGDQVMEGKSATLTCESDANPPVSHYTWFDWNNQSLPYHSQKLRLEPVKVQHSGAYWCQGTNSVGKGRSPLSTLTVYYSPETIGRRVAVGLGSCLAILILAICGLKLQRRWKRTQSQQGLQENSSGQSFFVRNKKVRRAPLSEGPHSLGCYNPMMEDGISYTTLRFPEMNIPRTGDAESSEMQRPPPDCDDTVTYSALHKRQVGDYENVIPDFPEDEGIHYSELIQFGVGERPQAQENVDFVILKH
# Myc-tagged CD22 Y762F (P20273, form named): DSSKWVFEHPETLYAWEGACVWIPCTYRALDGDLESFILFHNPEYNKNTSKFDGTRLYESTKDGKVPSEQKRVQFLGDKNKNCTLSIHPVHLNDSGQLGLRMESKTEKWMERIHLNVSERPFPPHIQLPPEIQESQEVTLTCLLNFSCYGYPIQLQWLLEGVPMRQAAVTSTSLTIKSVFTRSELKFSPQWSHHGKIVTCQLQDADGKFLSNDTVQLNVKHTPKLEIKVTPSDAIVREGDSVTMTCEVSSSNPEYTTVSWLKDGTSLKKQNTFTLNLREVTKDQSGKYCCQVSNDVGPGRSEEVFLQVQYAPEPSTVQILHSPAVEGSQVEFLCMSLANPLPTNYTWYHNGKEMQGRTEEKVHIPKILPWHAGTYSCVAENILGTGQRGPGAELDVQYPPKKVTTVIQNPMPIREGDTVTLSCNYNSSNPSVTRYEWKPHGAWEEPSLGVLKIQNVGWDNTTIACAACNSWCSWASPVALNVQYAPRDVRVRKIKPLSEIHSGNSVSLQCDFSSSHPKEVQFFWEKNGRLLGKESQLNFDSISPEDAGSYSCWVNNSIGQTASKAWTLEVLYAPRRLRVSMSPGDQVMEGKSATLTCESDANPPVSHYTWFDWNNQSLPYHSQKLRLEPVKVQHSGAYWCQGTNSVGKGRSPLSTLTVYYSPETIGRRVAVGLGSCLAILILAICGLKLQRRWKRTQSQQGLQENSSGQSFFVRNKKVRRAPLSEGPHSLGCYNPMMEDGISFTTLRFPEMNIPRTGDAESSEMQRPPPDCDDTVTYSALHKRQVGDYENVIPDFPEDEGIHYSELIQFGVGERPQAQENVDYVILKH
# Myc-tagged CD22 Y762/822/842F triple mutant (P20273, form named): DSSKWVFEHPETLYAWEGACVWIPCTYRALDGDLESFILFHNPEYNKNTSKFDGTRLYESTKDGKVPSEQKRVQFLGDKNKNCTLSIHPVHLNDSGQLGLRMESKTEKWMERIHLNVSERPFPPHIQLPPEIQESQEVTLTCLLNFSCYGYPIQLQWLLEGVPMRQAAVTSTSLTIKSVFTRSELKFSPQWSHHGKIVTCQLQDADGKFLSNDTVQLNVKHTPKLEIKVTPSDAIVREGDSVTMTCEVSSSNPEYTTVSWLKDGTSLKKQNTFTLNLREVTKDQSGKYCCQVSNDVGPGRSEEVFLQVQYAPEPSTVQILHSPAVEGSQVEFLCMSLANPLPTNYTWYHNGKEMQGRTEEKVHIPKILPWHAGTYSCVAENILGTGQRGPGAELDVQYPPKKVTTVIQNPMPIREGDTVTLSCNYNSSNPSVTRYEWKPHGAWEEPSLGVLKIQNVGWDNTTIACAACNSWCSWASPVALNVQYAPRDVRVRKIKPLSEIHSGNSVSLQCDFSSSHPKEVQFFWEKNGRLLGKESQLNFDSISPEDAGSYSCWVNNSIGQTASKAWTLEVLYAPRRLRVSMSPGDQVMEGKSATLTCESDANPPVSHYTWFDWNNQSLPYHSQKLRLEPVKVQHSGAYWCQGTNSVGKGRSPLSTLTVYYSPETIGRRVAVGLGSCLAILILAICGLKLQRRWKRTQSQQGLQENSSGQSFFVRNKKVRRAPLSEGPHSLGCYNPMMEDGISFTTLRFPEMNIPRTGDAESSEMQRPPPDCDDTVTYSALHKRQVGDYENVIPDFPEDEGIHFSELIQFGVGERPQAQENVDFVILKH
# Myc-tagged CD22 Y822F (P20273, form named): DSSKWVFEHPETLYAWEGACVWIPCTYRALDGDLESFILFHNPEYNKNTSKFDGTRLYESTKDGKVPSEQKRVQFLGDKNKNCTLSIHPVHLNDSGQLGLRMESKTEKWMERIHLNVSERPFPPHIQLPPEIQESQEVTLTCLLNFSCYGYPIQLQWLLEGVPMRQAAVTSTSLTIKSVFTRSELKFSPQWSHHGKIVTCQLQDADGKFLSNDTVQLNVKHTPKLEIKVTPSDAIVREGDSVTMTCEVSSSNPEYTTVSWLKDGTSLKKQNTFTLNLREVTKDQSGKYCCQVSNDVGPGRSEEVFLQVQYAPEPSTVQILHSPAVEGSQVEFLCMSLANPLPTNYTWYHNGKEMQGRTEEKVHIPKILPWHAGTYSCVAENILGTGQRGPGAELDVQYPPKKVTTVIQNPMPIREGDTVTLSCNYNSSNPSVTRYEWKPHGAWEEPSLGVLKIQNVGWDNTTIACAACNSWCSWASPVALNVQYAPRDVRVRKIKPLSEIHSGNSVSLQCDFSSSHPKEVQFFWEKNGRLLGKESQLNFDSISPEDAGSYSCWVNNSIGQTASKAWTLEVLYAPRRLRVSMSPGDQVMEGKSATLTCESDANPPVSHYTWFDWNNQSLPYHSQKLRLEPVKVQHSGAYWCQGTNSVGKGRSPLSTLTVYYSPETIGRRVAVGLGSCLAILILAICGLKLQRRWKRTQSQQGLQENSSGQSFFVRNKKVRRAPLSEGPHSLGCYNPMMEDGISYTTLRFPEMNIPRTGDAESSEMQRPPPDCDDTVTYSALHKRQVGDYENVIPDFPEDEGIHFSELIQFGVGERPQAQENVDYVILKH
# Myc-tagged CD22 6Y-to-F mutant (P20273, form named): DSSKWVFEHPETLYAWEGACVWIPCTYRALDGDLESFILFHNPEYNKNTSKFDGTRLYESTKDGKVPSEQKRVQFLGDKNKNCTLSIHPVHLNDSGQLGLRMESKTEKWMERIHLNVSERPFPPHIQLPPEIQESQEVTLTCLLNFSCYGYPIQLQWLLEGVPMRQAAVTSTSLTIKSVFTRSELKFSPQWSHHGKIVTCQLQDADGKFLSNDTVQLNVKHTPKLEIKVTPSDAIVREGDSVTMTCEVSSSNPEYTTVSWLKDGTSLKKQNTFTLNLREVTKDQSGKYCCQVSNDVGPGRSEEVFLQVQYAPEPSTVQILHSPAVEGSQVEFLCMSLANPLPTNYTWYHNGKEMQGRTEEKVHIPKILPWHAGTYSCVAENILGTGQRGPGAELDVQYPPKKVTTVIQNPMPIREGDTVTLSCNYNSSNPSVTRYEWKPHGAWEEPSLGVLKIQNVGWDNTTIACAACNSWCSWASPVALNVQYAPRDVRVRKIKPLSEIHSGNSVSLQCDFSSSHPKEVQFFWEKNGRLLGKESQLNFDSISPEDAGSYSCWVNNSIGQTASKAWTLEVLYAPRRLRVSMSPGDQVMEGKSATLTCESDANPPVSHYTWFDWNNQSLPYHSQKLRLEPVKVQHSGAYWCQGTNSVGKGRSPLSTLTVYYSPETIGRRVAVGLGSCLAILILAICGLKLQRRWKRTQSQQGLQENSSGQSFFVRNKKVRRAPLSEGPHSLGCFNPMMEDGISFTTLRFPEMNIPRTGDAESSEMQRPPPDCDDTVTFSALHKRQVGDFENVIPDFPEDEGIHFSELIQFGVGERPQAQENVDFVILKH
# Myc-tagged CD22-Y822/842F double mutant (P20273, form named): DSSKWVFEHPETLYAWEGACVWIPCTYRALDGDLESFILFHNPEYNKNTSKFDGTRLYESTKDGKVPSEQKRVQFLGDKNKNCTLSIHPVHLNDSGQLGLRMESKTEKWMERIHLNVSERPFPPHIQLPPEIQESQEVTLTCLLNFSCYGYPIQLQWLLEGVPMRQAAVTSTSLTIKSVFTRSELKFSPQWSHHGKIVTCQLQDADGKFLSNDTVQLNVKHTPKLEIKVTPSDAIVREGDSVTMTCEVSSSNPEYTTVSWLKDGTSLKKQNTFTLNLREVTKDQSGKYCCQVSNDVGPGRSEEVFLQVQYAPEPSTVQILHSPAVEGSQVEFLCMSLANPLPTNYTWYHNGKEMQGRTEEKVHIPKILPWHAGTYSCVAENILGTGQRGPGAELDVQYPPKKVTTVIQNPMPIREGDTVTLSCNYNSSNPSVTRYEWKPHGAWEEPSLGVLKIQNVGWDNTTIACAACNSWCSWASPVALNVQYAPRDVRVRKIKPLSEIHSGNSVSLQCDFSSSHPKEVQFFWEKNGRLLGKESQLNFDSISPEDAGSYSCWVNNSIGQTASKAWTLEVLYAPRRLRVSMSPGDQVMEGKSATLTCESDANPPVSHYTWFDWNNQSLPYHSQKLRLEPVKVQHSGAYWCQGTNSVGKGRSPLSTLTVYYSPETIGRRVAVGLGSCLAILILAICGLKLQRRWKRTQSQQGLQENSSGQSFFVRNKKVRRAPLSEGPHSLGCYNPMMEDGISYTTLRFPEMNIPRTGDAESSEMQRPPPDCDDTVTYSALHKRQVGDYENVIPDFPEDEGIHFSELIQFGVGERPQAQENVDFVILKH
# These are yes or no findings as the source states them, for the method shown. In cells and extracts the contact can be indirect. Some binding calls cover weakened binding; strength is not graded here. Tags and fused reporters may be left off the sequences shown.
# Assays:
# Test in all cases: co-IP; anti-Myc co-IP of C-terminally Myc-tagged CD22 WT or Y-to-F mutants from PTP1B KO Ramos cells with induced FLAG-PTP1B-D181A-Y46F; immunoblot with anti-FLAG (n = 3) and anti-GRB2 (n = 1)
# [1] = molecular target: Myc-tagged CD22 Y842F (human) (UniProt P20273)
# [2] = molecular target: Myc-tagged CD22 Y762F (human) (UniProt P20273)
# [3] = molecular target: Myc-tagged CD22 Y762/822/842F triple mutant (human) (UniProt P20273)
# [4] = molecular target: Myc-tagged CD22 WT (human) (UniProt P20273)
# [5] = molecular target: Myc-tagged CD22 Y822F (human) (UniProt P20273)
# [6] = molecular target: Myc-tagged CD22 6Y-to-F mutant (human) (UniProt P20273)
# [7] = molecular target: Myc-tagged CD22-Y822/842F double mutant (human) (UniProt P20273)
binder,measurement,setting,value
"FLAG-PTP1B D181A-Y46F substrate trapping mutant (full-length) (enzyme, UniProt P18031 1-435) MEMEKEFEQIDKSGSWAAIYQDIRHEASDFPCRVAKLPKNKNRNRFRDVSPFDHSRIKLHQEDNDYINASLIKMEEAQRSYILTQGPLPNTCGHFWEMVWEQKSRGVVMLNRVMEKGSLKCAQYWPQKEEKEMIFEDTNLKLTLISEDIKSYYTVRQLELENLTTQETREILHFHYTTWPAFGVPESPASFLNFLFKVRESGSLSPEHGPVVVHCSAGIGRSGTFCLADTCLLLMDKRKDPSSVDIKKVLLEMRKFRMGLIQTADQLRFSYLAVIEGAKFIMGDSSVQDQWKELSHEDLEPPPEHIPPPPRPPKRILEPHNGKCREFFPNHQWVKEETQEDKDCPIKEEKGSPLNAAPYGIESMSQDTEVRSRVVGGSLRGAQAASPAKGEPSLPEKDEDHALSYWKPFLVNMCVATVLTAGAYLCYRFLFNSNT",binding,[1],binds
same,binding,[2],binds
same,binding,[3],binds
same,binding,[4],binds
same,binding,[5],binds
same,binding,[6],no binding
same,binding,[7],binds
